# Reference: PubChem BioAssay AID485313 (National Center for Advancing Translational Sciences (NCATS), 2010)
# Out of some 320,000 compounds screened, about 7,600 (2.4%) were called active. This list was built around the results that the source calls inconclusive (neither active nor inactive); the mix of calls is not that of the screen. Calls come from the whole dose curve; as a rule, active = well fitted activation curve with a large enough effect; inconclusive = small, poorly fitted or top-dose-only effect; inactive = no such curve, though single readings can be large or run the other way. No potency is given beside an inconclusive call; the fits are too rough.
# Assay: qHTS Assay for NPC1 Promoter Activators; note: nearly all actives have a fitted effect of over 60% in size;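 for activation: reporter is driven by a mutant NPC1 promoter; % of control where 0% means no effect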
# Conditions: Huh7 NPC1 promoter luciferase reporter, 24 h; series mostly up to 9.22 µM; activation: at the top concentration
# Procedure, shortened: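 Huh7 cells stably carrying NPC1 promoter–luciferase, plated in Opti-MEM with 10% FBS for 2 h, were exposed to compound in DMSO for 24 h at 37 °C; luciferase reagent was added for 10 min and luminescence read.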
# Potency is the fitted concentration of half-maximal effect; tags give direction and shape of the fitted curve.
SMILES,activation,Potency
COc1ccc(C(=O)COC(=O)c2ccc(N(C)C)cc2)cc1,inactive: 20.7%,–
CCc1ccc(CCC(=O)Nc2ccccc2C(=O)O)o1,–,"inconclusive [activator, single point]"
CC(=Nc1ccc(O)cc1)c1sc2ccccc2c1O,–,active: 1.78 µM
COc1cc2cc3c(N)c(C(=O)NCc4ccco4)sc3nc2cc1OC,–,"inconclusive [activator, partial curve]"
Cc1ccc(NC(=S)NC(=O)c2ccccc2)cc1NC(=S)NC(=O)c1ccccc1,–,"inconclusive [activator, partial curve]"
O=C(CCC(=O)N(CC(=O)NC1CCCC1)Cc1ccccc1Cl)Nc1nccs1,inactive: 0.774%,–
Fc1ccc(Cn2ccc(-c3cnc(-c4ccccc4)s3)n2)cc1,–,"inconclusive [activator, partial curve]"
COCc1cc(=O)[nH]c(Nc2nc3ccccc3o2)n1,–,"inconclusive [activator, partial curve]"
Cc1ccc(OC(=O)c2ccc3nc(C)sc3c2)cc1,–,active: 0.794 µM
COCc1cc(C)nc2sc(C(=O)Nc3nccs3)c(N)c12,–,"inconclusive [activator, partial curve]"
CCCC(=O)Nc1ccc(NC(=O)c2ccccc2F)cn1,–,"inconclusive [activator, partial curve]"
Cc1ccc(OCC(O)Cn2c3ccccc3c3ccccc32)cc1 (centres undefined),inactive: -5.04%,–
CCOC(=O)Nc1nc(-c2ccc(F)cc2F)cs1,–,"inconclusive [activator, single point]"
CCN(CC)S(=O)(=O)c1cc(C(=O)Oc2cccc(-c3cnc4ccccc4n3)c2)ccc1Br,–,"inconclusive [activator, single point]"
COc1ccc(CN(CC2CCCO2)S(=O)(=O)c2ccc(C(=O)O)cc2)cc1OC (centres undefined),inactive: -1.64%,–
N#C/C(=C\c1ccc(N2CCCC2)c([N+](=O)[O-])c1)c1nc2ccccc2[nH]1,–,"inconclusive [activator, single point]"
Nc1ccc(C(=O)OCC(=O)Nc2cc([N+](=O)[O-])ccc2F)cc1,inactive: 4.77%,–
CC1=NN(C(N)=S)C(=O)C1N=Nc1ccc(C)cc1C (centres undefined),–,"inconclusive [activator, single point]"
O=C(O)c1ccc(N=Nc2c(O)[nH]c3ccc(Br)cc23)cc1,–,active: 1.26 µM
COc1ccc(Cl)cc1NC(=O)CSc1nnc(C2CC2)n1C,–,"inconclusive [activator, single point]"
O=C(Cc1cccs1)NCc1cccc(Cl)c1,–,"inconclusive [activator, partial curve]"
COc1ccc(CNC(=O)COc2cccnc2[N+](=O)[O-])cc1OC,inactive: 2.16%,–
Cc1ccc(NC(=O)c2ccc(OC(=S)N3CCOCC3)cc2)cc1,–,"inconclusive [activator, partial curve]"
CCC(C)c1ccc(NC(=O)Nc2cnccn2)cc1 (centres undefined),inactive: -6.4%,–
C[C@H](NC(=O)c1ccc2ccccc2c1)C(=O)N1CCC2(CC1)NCCc1[nH]cnc12,inactive: -2.91%,–
Cc1ccc(C(=O)c2sc3nc4c(cc3c2N)CCC4)cc1,–,active: 1.78 µM
COCC(=O)Nc1ccc(-c2cn3cccnc3n2)cc1,inactive: 0.614%,–

SMILES,activation,Potency
COc1ccc(-c2cc(C(F)(F)F)nc(SCC(=O)NCc3ccco3)n2)cc1OC,inactive: 4.29%,–
Cc1ccccc1C(=O)Nc1nnc(SCC(=O)NC2CC2)s1,–,active: 2.51 µM
COc1ccc(CCN2CCCC(CN(C)C(=O)c3ccoc3)C2)cc1 (centres undefined),–,active: 2.51 µM
Cc1nc2cc(NC(=O)Nc3cccc([N+](=O)[O-])c3)ccc2n1C,–,active: 0.355 µM
COc1ccc(/C=N/NC(=O)Cc2cccs2)cc1,–,"inconclusive [activator, partial curve]"
Cc1ccc(C(=O)Nc2nnc(SCC(=O)N3CCCc4ccccc43)s2)cc1,–,"inconclusive [activator, full curve]"
COc1ccc(C(=O)CNc2ccccc2Br)cc1,–,"inconclusive [activator, single point]"
OCCNc1nc(Nc2ccc(Br)cc2)nc2ccccc12,inactive: -7.27%,–
O=C(NC12CC3CC(CC(C3)C1)C2)c1ccco1,inactive: 1.63%,–
O=C(Nc1ccc(-c2nnc(-c3ccccc3)o2)cc1)C(F)(F)F,–,active: 1.58 µM
COc1ccc2c(c1O)Cc1ccccc1C2=O,–,"inconclusive [activator, single point]"
Cn1c(NC(=S)Nc2ccccc2)nc2ccccc21,–,"inconclusive [activator, single point]"
Oc1c(Br)cc(C2N=C(c3ccccc3)NO2)cc1Br (centres undefined),inactive: 17.8%,–
O=C(O)c1cc(-c2ccc(Cl)c(Cl)c2)n(-c2ccccc2)n1,inactive: -1.04%,–
Cc1csc(SCC(=O)Nc2ccc(C)c(F)c2)n1,inactive: 8.74%,–
CC(Cc1ccccc1)NC(=O)c1ccc([N+](=O)[O-])cc1 (centres undefined),–,active: 2.82 µM
CC(C)(C)C(=O)OCc1cn(-c2ccc(Cl)cc2)nn1,–,"inconclusive [activator, single point]"
COc1ccc(Nc2nc(C)c3ccccc3n2)cc1,–,"inconclusive [activator, single point]"
NC(=O)C1CCN(c2nc(-c3cccc(Cl)c3)cs2)CC1,inactive: 24.7%,–
O=C(CCCOc1ccccc1)N1CCN(c2ccccn2)CC1,–,active: 1.26 µM
CCCN(CCC)CCCNC(=S)Nc1ccc2nc(N3CCCC3)cc(C)c2c1,inactive: -4.61%,–
N/C(=N\OC(=O)c1ccc2c(c1)OCO2)c1ccncc1,–,active: 3.16 µM
COc1ccc(N2CS(=O)(=O)/C(=C/N(C)C)C2=O)cc1,–,"inconclusive [activator, partial curve]"
CN1C(=O)CSc2ccc(NC(=O)N3CCN(c4ccccn4)CC3)cc21,inactive: -4.95%,–
Cc1ccc(OCC(=O)Nc2ccc(NC(=O)c3ccco3)cc2)c(C)c1,inactive: 12.6%,–
COc1ccc(C(=O)c2cc3c(cc2[N+](=O)[O-])OCCO3)cc1,inactive: -1.21%,–
COc1ccc(-n2cc(-c3ccccc3)nc2SC)cc1,–,"inconclusive [activator, single point]"

SMILES,activation,Potency
c1ccn2c(SCc3ccc4c(c3)OCO4)nnc2c1,–,"inconclusive [activator, single point]"
O=c1[nH]c(SCc2nc3c(cnn3-c3ccccc3)c(=O)[nH]2)nc2ccccc12,–,"inconclusive [activator, single point]"
O=C(N=Nc1c(O)[nH]c2ccccc12)c1cc(-c2cccs2)[nH]n1,–,"inconclusive [activator, single point]"
COc1cc(NC(=O)c2cc(-c3ccco3)on2)c(OC)cc1Cl,–,"inconclusive [activator, partial curve]"
CCOc1ccc(NC(=O)COc2ccccc2)c([N+](=O)[O-])c1,–,"inconclusive [activator, partial curve]"
COc1cccc(C2C(C(=O)OC(C)C)=C(C)N=c3s/c(=C\c4ccc(C(=O)O)cc4)c(=O)n32)c1 (centres undefined),–,"inconclusive [activator, single point]"
O=C(Nc1ccc2c(c1)OCCO2)c1ccccn1,–,active: 0.794 µM
COC(=O)CCC(=O)c1oc2ccc(OC)cc2c1N,–,active: 2.51 µM
Cc1ccc(C2/C(=C(/O)c3cnn(-c4ccccc4)c3C)C(=O)C(=O)N2CCCN2CCOCC2)o1 (centres undefined),–,"inconclusive [activator, single point]"
Nc1ccc2nc(-c3ccc(Cl)cc3)[nH]c2c1,–,"inconclusive [activator, single point]"
COc1ccccc1OCCn1c(C)c(C=O)c2ccccc21,inactive: -6.82%,–
O=C(Nc1ccc(CN2CCOCC2)cc1)c1cccs1,–,"inconclusive [activator, partial curve]"
Cc1cccc(C)c1NC(=O)CN(C)C(=O)c1ccccc1Sc1ccccc1C#N,–,"inconclusive [activator, single point]"
COc1ccccc1C(=O)NC(=O)COC(=O)c1ccc([N+](=O)[O-])cc1Cl,inactive: -1.28%,–
O=C(OCC(=O)N1CCOCC1)c1cccc(F)c1,–,"inconclusive [activator, partial curve]"
O=C(CSc1n[nH]c(=O)n1C1CC1)c1ccc2c(c1)OCCO2,–,"inconclusive [activator, partial curve]"
Cc1ccc2c(Cl)c(C(=O)Nc3ccc4c(c3)OCO4)sc2c1,–,"inconclusive [activator, partial curve]"
C/C(=N\NC(=O)c1c[nH]c2ccccc12)c1ccccn1,–,active: 2.51 µM
COc1cccc(CN2CCNC(=O)C2CC(=O)NCC(C)(C)N2CCOCC2)c1OC (centres undefined),inactive: -0.0298%,–
O=c1[nH]c(-c2ccccc2)nnc1-c1ccccc1,–,"inconclusive [activator, partial curve]"
COCc1cc(C)nc(SCC(=O)Nc2ccc3c(c2)OCCO3)c1C#N,–,"inconclusive [activator, partial curve]"
Nc1ccc(-c2nc3cc(N)ccc3s2)cc1,–,active: 0.501 µM
Cc1cc(/C=C(/C#N)c2cccc(Cl)c2)c(C)n1C,–,"inconclusive [activator, single point]"
O=C(Nc1ccc2oc(-c3ccccc3Cl)nc2c1)c1cncc(Br)c1,–,"inconclusive [activator, partial curve]"
COc1cccc(C=O)c1OCCCOc1cccc2cccnc12,–,"inconclusive [activator, partial curve]"
